{
  "source": "PubChem BioAssay AID624417",
  "about": "(National Center for Advancing Translational Sciences (NCATS), 2012)",
  "note": "“And” between values parts separate entries of the source, which are not always exact repeats. Equal entries are not always repeated. The campaign covered roughly 410,000 compounds. About 6,400 (1.6%) were called active. The shares of active, inactive and inconclusive entries below differ from those in the screen. The call rests on the fitted dose curve; in most records, active means well fitted inhibition curve with a large enough effect; inconclusive means small, poorly fitted or top-dose-only effect; inactive means no such curve, though single readings can be large or run the other way. No potency is given beside an inconclusive call; the fits are too rough. On the % scale 0 is the no-effect control and ±100 the full control effect; potency means the concentration at half of the fitted maximal effect; tags describe the fitted curve by direction and shape.",
  "data": [
    {"target": "Glucagon-like peptide 1 receptor (Homo sapiens) (UniProt P43220)", "sequence (P43220 whole entry, looked up)": "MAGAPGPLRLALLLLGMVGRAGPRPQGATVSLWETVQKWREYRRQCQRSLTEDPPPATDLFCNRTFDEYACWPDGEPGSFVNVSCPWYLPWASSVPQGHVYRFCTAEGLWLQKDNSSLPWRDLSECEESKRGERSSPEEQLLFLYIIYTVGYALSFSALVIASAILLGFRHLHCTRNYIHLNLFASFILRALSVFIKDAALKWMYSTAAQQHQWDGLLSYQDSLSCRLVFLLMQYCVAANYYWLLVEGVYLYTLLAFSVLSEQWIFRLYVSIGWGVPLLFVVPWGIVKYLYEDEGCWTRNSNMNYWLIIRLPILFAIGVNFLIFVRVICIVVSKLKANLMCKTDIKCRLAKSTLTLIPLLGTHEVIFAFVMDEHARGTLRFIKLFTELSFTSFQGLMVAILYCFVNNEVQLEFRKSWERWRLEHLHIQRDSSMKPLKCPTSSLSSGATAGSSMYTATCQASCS", "test": "qHTS of GLP-1 Receptor Inverse Agonists (Inhibition Mode); further: nearly all actives have a fitted effect of over 55% in size", "conditions": "HEK293 GLP-1R CRE-luciferase, luminescence, 24 h, GLP-1R form is constitutively active; activity change, negative = inhibition: at 38.3 µM (top of the series) unless noted", "in_short": "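Readout was luciferase luminescence, measured 12 min after detection reagent at room temperature. Beforehand, GLP-1R reporter HEK293 cells had sat 12 h, then received compounds for 24 hr at 37 deg C.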", "values": [
      {"smiles": "CC(C)Cn1c(N)c(S(=O)(=O)c2cccs2)c2nc3ccccc3nc21", "Potency": "inconclusive [inhibitor, single point]"},
      {"smiles": "COc1ccc(OC)c(N=C(C)C2=C(O)COC2=O)c1", "Potency": "inconclusive [inhibitor, single point]"},
      {"smiles": "c1ccc(N2CCN(c3ccccc3)C2c2cccnc2)cc1", "Potency": "inconclusive [inhibitor, single point]"},
      {"smiles": "CCCNC(=O)C1CC(=O)N(c2ccc(OCc3ccc(F)cc3)cc2)C1", "note": "(stereo not drawn)", "Potency": "inconclusive [inhibitor, single point]"},
      {"smiles": "Cc1ccc(/C=C2\\SC(=S)N(NS(=O)(=O)c3ccc(C)cc3)C2=O)cc1", "Potency": "inconclusive [inhibitor, single point]"},
      {"smiles": "Cc1ccc(C2(C)NC(=O)N(CC(=O)Nc3nc(-c4ccccn4)cs3)C2=O)cc1", "note": "(stereo not drawn)", "Potency": "inconclusive [inhibitor, single point]"},
      {"smiles": "Cc1ccc(C(NC(=O)Nc2ccccn2)C(Cl)(Cl)Cl)cc1F", "note": "(stereo not drawn)", "Potency": "inconclusive [inhibitor, full curve, poor fit]"},
      {"smiles": "C(=N\\N1CCN(C(c2ccccc2)c2ccccc2)CC1)/c1ccc2c(c1)OCO2", "activity change, negative = inhibition": "inactive: -16%"},
      {"smiles": "O=[N+]([O-])c1cc(-c2nc(-c3ccccc3)no2)ccc1N1CCCCC1", "Potency": "inconclusive [inhibitor, full curve, poor fit]"},
      {"smiles": "CCOC(=O)C1CCN(CCC(=O)Nc2ccc(Cl)cc2)CC1", "Potency": "inconclusive [inhibitor, full curve]"},
      {"smiles": "Cc1ccc(NC(=O)C2CCCN(c3nnc(C)c4c(C)n(-c5ccccc5)nc34)C2)c(Cl)c1", "note": "(stereo not drawn)", "activity change, negative = inhibition": "inactive: 4.88%"},
      {"smiles": "COc1ccccc1C1=CC(=O)CC(C)(C)C1=O", "activity change, negative = inhibition": "inactive: 15.3%"},
      {"smiles": "CCOc1ccccc1NC(=S)NC1CCCCC1", "Potency": "inconclusive [inhibitor, partial curve, poor fit]"},
      {"smiles": "Cc1ccc(S(=O)(=O)Cc2ccc(C(=O)N3CCN(c4cccc(C)c4C)CC3)o2)cc1", "Potency": "active: 2.24 µM and active: 5.01 µM"},
      {"smiles": "CCOc1ccccc1N(CC(=O)NCCSCc1ccco1)S(=O)(=O)c1ccccc1", "Potency": "inconclusive [inhibitor, partial curve, poor fit]"},
      {"smiles": "CCC(Cn1nnc2ccccc2c1=O)NC(=O)Nc1cccc(C)c1C", "note": "(stereo not drawn)", "activity change, negative = inhibition": "inactive: -0.918%"},
      {"smiles": "CCOC(=O)c1c(NC(=O)CSc2c[nH]c3ccccc23)sc2c1CCC2", "Potency": "inconclusive [inhibitor, partial curve, poor fit]"},
      {"smiles": "COc1ccc(N=C2S/C(=C\\c3ccc(OCC(=O)O)cc3)C(=O)N2CCc2c[nH]c3ccccc23)cc1", "activity change, negative = inhibition": "inactive: 2.68%"},
      {"smiles": "C=CCn1c(CCNC(=O)c2ccc(Cl)c(Cl)c2)nnc1SCCOc1ccc(OC)cc1", "activity change, negative = inhibition": "inactive: -23.5%"},
      {"smiles": "COc1ccc(/C=C/C(=O)c2ccc3c(c2)OCCO3)cc1[N+](=O)[O-]", "Potency": "inconclusive [inhibitor, single point]"},
      {"smiles": "CN(C)c1ccc(/C=C2\\CCC/C(=C\\c3ccccc3)C2=O)cc1", "Potency": "inconclusive [inhibitor, partial curve, poor fit]"},
      {"smiles": "NNC(=O)CSc1nnc(-c2ccccc2)n1-c1ccccc1", "activity change, negative = inhibition": "inconclusive: -37.1% [inhibitor]"},
      {"smiles": "O=S(=O)(O)c1ccc(N=Nc2ccccc2)cc1", "activity change, negative = inhibition": "inactive: 12%"},
      {"smiles": "CCc1nc2ccc(C(=O)Nc3ccc(OC)c(OC)c3)cn2c1N(CC)Cc1cccc(Br)c1", "Potency": "inconclusive [inhibitor, single point]"},
      {"smiles": "O=C(COc1ccccc1Cl)OCc1cc(=O)n2nc(-c3cccs3)sc2n1", "activity change, negative = inhibition": "inactive: 14.8%"},
      {"smiles": "Cc1noc(C)c1COc1ccccc1C(=O)NCCc1ccc(F)cc1", "Potency": "inconclusive [inhibitor, single point]"},
      {"smiles": "CCOC(=O)N1c2ccccc2Sc2ccccc21", "Potency": "inconclusive [inhibitor, partial curve, poor fit]"},
      {"smiles": "CCn1c(SCC(=O)Nc2ccc(OCc3ccccc3)cc2)nnc1-c1ccco1", "Potency": "inconclusive [inhibitor, single point]"},
      {"smiles": "Cc1ccc2c(cnn2C(=O)CCCC(=O)NC(C)c2ccccc2)c1", "note": "(stereo not drawn)", "Potency": "inconclusive [inhibitor, single point]"},
      {"smiles": "COc1cccc(-c2sc3ccc(OC)cc3c2-c2ccc(OCCN3CCOCC3)cc2)c1", "Potency": "inconclusive [inhibitor, partial curve, poor fit]"},
      {"smiles": "CCCOc1ccccc1C1CC(=O)Nc2cc3c(cc21)OCO3", "note": "(stereo not drawn)", "Potency": "inconclusive [inhibitor, full curve, poor fit]"},
      {"smiles": "CC(=O)c1ccc(N2CCN(C(=O)CCCn3c(=S)[nH]c4cc5c(cc4c3=O)OCO5)CC2)cc1", "activity change, negative = inhibition": "inactive: 0%"},
      {"smiles": "COc1ccc(/C=N/NC(=O)c2cccnc2)cc1CSc1ccccn1", "Potency": "inconclusive [inhibitor, partial curve, poor fit]"},
      {"smiles": "CSc1ncnc2c1ncn2CCCN1CCN(Cc2cccc3ccccc23)CC1", "Potency": "inconclusive [inhibitor, partial curve, poor fit]"},
      {"smiles": "COc1ccc(C(=O)N2N=C(c3cccc(OC)c3)CC2(O)C(F)(F)F)cc1", "note": "(stereo not drawn)", "Potency": "inconclusive [inhibitor, partial curve, poor fit]"},
      {"smiles": "COc1cc(C(C)=O)ccc1OCCN1CCC(Cc2ccccc2)CC1", "Potency": "inconclusive [inhibitor, partial curve, poor fit]"},
      {"smiles": "CCOC(=O)c1cc2sc(C)cc2n1CCCN1C(=O)c2ccccc2C1=O", "Potency": "inconclusive [inhibitor, partial curve, poor fit]"},
      {"smiles": "COc1ccc(S(=O)(=O)N2CCN(Cc3c[nH]c4ccccc34)CC2)cc1", "Potency": "inconclusive [inhibitor, partial curve, poor fit]"},
      {"smiles": "Cc1ccccc1NC(=O)Cn1c(SCC(=O)Nc2ccc(F)cc2)nc2ccccc21", "activity change, negative = inhibition": "inactive: 3.23%"},
      {"smiles": "Cc1noc(NS(=O)(=O)c2ccc(NC(=O)/C=C/c3ccc(Br)cc3)cc2)c1C", "Potency": "inconclusive [inhibitor, partial curve, poor fit]"},
      {"smiles": "S=C(NC1CCCCC1)N1CCOCCOCCN(C(=S)NC2CCCCC2)CCOCC1", "activity change, negative = inhibition": "inactive: 8.71%"},
      {"smiles": "O=C(c1ccccc1)c1cccc(NC(=O)c2ccc(Br)o2)c1", "Potency": "inconclusive [inhibitor, partial curve, poor fit]"},
      {"smiles": "O=C(Cn1cc(C(=O)c2ccco2)c2ccccc21)Nc1ccccc1F", "Potency": "inconclusive [inhibitor, partial curve, poor fit]"},
      {"smiles": "CC(C)CNC(=S)Nc1ccccc1F", "activity change, negative = inhibition": "inactive: -5.32%"},
      {"smiles": "CC1(C)Cc2cccc(OCC(=O)NCc3ccccc3F)c2O1", "Potency": "inconclusive [inhibitor, single point]"},
      {"smiles": "Cc1ccc(-c2nc(C(=O)NCc3ccc(Cl)cc3)c3n2CCCCC3)cc1", "Potency": "inconclusive [inhibitor, partial curve, poor fit]"},
      {"smiles": "C=CCNC(=S)NNC(=O)C(CCCC)CC(C)(C)O", "note": "(stereo not drawn)", "Potency": "inconclusive [inhibitor, single point]"},
      {"smiles": "O=C(Nc1nccs1)c1cn2ccccc2n1", "Potency": "inconclusive [inhibitor, single point]"},
      {"smiles": "O=C(NCc1ccco1)c1ccc2c(c1)N(Cc1ccccc1)CCS2", "Potency": "inconclusive [inhibitor, single point]"},
      {"smiles": "CCOC(=O)[C@@H]1[C@H]2COc3ccc(Br)cc3[C@@H]2N2C(=O)N(c3cccc(F)c3)C(=O)[C@@]12C", "Potency": "inconclusive [inhibitor, partial curve, poor fit]"},
      {"smiles": "O=C1CC(c2ccsc2)c2ccc3ccccc3c2N1", "note": "(stereo not drawn)", "Potency": "inconclusive [inhibitor, partial curve]"},
      {"smiles": "CCCCN=C1NC(=O)C(CC(=O)Nc2ccc(Cl)cc2)S1", "note": "(stereo not drawn)", "Potency": "inconclusive [inhibitor, single point]"},
      {"smiles": "Cc1cc(SCC(=O)Nc2cccc(S(=O)(=O)NC3=NCCCCC3)c2)c(C)cc1Br", "Potency": "inconclusive [inhibitor, single point]"},
      {"smiles": "Cc1cccnc1C(NC(=O)C1CCN(Cc2ccc(Cl)cc2)CC1)c1ccc(F)cc1", "note": "(stereo not drawn)", "Potency": "inconclusive [inhibitor, partial curve, poor fit]"},
      {"smiles": "Cc1nc(NC(=O)CCc2ccccc2)ccc1Br", "Potency": "inconclusive [inhibitor, single point]"},
      {"smiles": "CC(C)c1ccc(NS(=O)(=O)c2ccc3[nH]cc(C(=O)NC4CCCC4)c(=O)c3c2)cc1", "Potency": "inconclusive [inhibitor, single point]"},
      {"smiles": "C=CCSc1nnc(NC(=O)c2ccc3c(c2)OCCO3)s1", "Potency": "inconclusive [inhibitor, partial curve]"},
      {"smiles": "Cc1ccc(C(c2nnnn2CCc2ccccc2)N2CCC(C)CC2)cc1", "note": "(stereo not drawn)", "Potency": "inconclusive [inhibitor, single point]"},
      {"smiles": "CN(Cc1ccccc1F)C(=O)c1sccc1-c1ccccc1", "Potency": "inconclusive [inhibitor, partial curve, poor fit]"},
      {"smiles": "Cc1cc(C(=O)N/N=C/c2cccs2)n[nH]1", "activity change, negative = inhibition": "inactive: 6.3%"},
      {"smiles": "Cc1cccc(C)c1NC(=O)C1(C)CSCC(=O)N1CCc1ccccc1F", "note": "(stereo not drawn)", "Potency": "inconclusive [inhibitor, partial curve, poor fit]"},
      {"smiles": "O=C(COc1ccc(S(=O)(=O)NC2CCCCC2)cc1)N1CCN(c2cccc(Cl)c2)CC1", "Potency": "inconclusive [inhibitor, single point]"},
      {"smiles": "COc1ccc(N2C(=O)C3C(C2=O)C3(c2ccccc2)c2ccccc2)cc1", "note": "(stereo not drawn)", "Potency": "inconclusive [inhibitor, partial curve, poor fit]"}
    ]}
  ]
}
